± gives the standard deviation of the averaged measurements. This is one part of the list.
Test system: PfAP2-I AP2 domain 3 (GST-tagged)
Assay: gcPBM binding intensity (ln(normalized median fluorescence intensity)); higher = stronger DNA binding
Procedure, shortened: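 An Agilent 4 × 180k array carrying primer-extended double-stranded 36-bp intergenic genomic probes and negative controls received GST-tagged P. falciparum DNA-binding domains expressed in E. coli, about 25 μg on average, for 1 h. The binding buffer contained 1× PBS, 1% milk, 0.2 mg/ml BSA, 0.5% salmon testes DNA and 0.03% Triton X-100. Binding intensity is the top Masliner-normalised natural-log median intensity across replicate spots of either probe orientation, read after Alexa488 anti-GST antibody staining and a 488 nm scan.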

In order of falling “gcPBM binding intensity (ln)” value:
1. TTATCATTTGCCATTGTGCACTTATATGCTCACATT  10.97 ± 0.028
2. AAAAAAAATTATGAAGTGCATTAGTGAATTTGATTG  10.9 ± 0.3
3. TACATATATTATTGCACACATATAAAATACCCCCAA [CACACA_site3895]  10.6 ± 0.28
4. TAAAGTGTAAAATTCACACACATATATATATATATA [CACACA_site4883]  9.46 ± 0.51
5. TTTTTTTTTCAAGAGGTGCGTGTATTTTAACAAAAA  8.94
6. TTCTTGTATATATTTTGTACATATATACCATTTTAG [XGTACX_site2409]  8.33 ± 0.75
7. ATCATTCCACTTTTCACACATATCTCTATTTCTATC [CACACA_site4723]  8.31 ± 0.76
8. TATATGTTTTTATGTACACACTTTTAACCTAAGAAA [CACACA_site4769]  8.27 ± 0.14
9. TCTTGTCTACCTTGTATTTAATATTTACATATATAA [TGCATGCA_negctrl_site320]  8.25 ± 0.68
10. ATAGGTAATAATAATACACACGGTGAAATATAGATG [CACACA_site9336]  8.04 ± 0.66
11. ATTTTTTTTATTATTACACACATATAATAAAAAAAT [CACACA_site1802]  8.03 ± 0.42
12. TATTTCTTATTACATACACACATATACATAGATGAC [CACACA_site5729]  8 ± 0.55
13. GTATAATTTATTGAACGTACACATATATATATGTAT [XGTACX_site1395]  7.92 ± 0.28
14. TATTTGTAAAAATTGTGTACTTAGAAAATTCCAAAA [XGTACX_site6007]  7.84 ± 0.33
15. TTTAAAATAACCAAAAACAAAAAGAAACACAAATGT [GTGCAC_negctrl_site705]  7.82 ± 0.76
16. TTTTTCACACTTCAAAAGTGTCAACCTTCTATTCTC [TGCATGCA_negctrl_site489]  7.75 ± 0.79
17. CACAATGTAGTGTATAAATACAATAAAAGGTTGTAT [CACACA_negctrl_site700]  7.74 ± 0.6
18. AAAAAAAATAAAATAATAAAAATTATGAATATATAT [CACACA_negctrl_site280]  7.71 ± 0.64
19. TTGTCTACAAAAATGTGCTTCTAATCATACGACTTG [CACACA_negctrl_site46]  7.6 ± 0.75
20. ATATTGTAAGTAAACACACACACATATATCTGTATA [CACACA_site4541]  7.55 ± 0.69
21. AATAAAATGCAATACATTTTGTTATATAATGTTGTT [CACACA_negctrl_site1525]  7.54 ± 0.47
22. ATTTTTTTTTTCTTTTTTTTTTGTTTTTCTCCTTTT [CACACA_negctrl_site1182]  7.5 ± 0.46
23. AAATGTATAGGAATAATAATAAAAAAAAAAAAAAAT [CACACA_negctrl_site1793]  7.49 ± 0.59
24. TGGAGGTCAGTTCACAGTACCCAGTAACTCTACGGA [XGTACX_site2549]  7.24 ± 0.68

Source: the supplement of paper PMC11417369
